This sample is rich in variants without activity. Bounds are passed on as bounds.

B1: TPR 5TU (parent)
chain: GGAUCUUCUCGAUCUAACAAAAAAGACAAAUCUGCCACAAAGCUUGAGAGCAUCUUCGGAUGCAGAGGCGGCAGCCUUCGGUGGCGCGAUAGCGCCAACGUUCUCAACUAUGACACGCAAAACGCGUGCUCCGUUGAAUGGAGUUUAUCAUG

In this series the parent is B1. In words: polymerase ribozyme fitness, log enrichment relative to wild type (log ratio); higher = more active; in vitro selection for triplet polymerase activity. In short, it runs like this:
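Fitness compares each genotype's enrichment to that of the wild type on a logarithmic scale, averaging replicates with inverse-variance weights. The logarithm is base 2. Enrichment came from Illumina sequencing of input and output libraries after one triplicate round of in vitro selection, which included frozen incubation at −7 °C, of PCR-built, transcribed mutant libraries of each subunit of a heterodimeric triplet polymerase ribozyme. Only genotypes with ≥10 input reads and ≥1 read per output were kept.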
On to C57A U139A, for which the “polymerase ribozyme fitness (log ratio)” value is -3.84.

For the variant C57A C85U A107G, the “polymerase ribozyme fitness (log ratio)” value is at most -4.2.

For U55A U109C U111G C114A, the “polymerase ribozyme fitness (log ratio)” value was at most -4.2.

On to U56G G84U C85A C99U, for which the “polymerase ribozyme fitness (log ratio)” value is at most -4.2.

Regarding U56A C96U G133A, the “polymerase ribozyme fitness (log ratio)” value was at most -4.2.

U56G U78C C85A C123U: the “polymerase ribozyme fitness (log ratio)” value is -1.43.

As to C57A A150U, the “polymerase ribozyme fitness (log ratio)” value was 1.72.

Consider C57A C75U U82G G92C A110U G140C U151C, for which the “polymerase ribozyme fitness (log ratio)” value was at most -4.2.

For U55A A60U C118G A119C, the “polymerase ribozyme fitness (log ratio)” value was -0.427.

Turning to U55A G94U C108A, the “polymerase ribozyme fitness (log ratio)” value is at most -4.2.

Turning to C57A C63U G67U C79U G86U, the “polymerase ribozyme fitness (log ratio)” value is at most -4.2.

For the variant C57A G68A A97G A120U G141U, the “polymerase ribozyme fitness (log ratio)” value is at most -4.2.

Turning to C57U G58C C76G G92A A97U, the “polymerase ribozyme fitness (log ratio)” value was at most -4.2.

Regarding U56G C116G, the “polymerase ribozyme fitness (log ratio)” value is -0.0028.

Regarding C57A C69U C87G C114U U139G G140U U146C, the “polymerase ribozyme fitness (log ratio)” value was at most -4.2.

U55A G86A C149U A150U: the “polymerase ribozyme fitness (log ratio)” value was -1.65.

Turning to U55A A60C U61A G80C, the “polymerase ribozyme fitness (log ratio)” value is at most -4.2.

As for U55G C105U G141U U145C U146G, the “polymerase ribozyme fitness (log ratio)” value is -3.09.

Consider C57G C79U, for which the “polymerase ribozyme fitness (log ratio)” value is -2.13.

Turning to C57A A66U G88A U101G, the “polymerase ribozyme fitness (log ratio)” value was at most -4.2.

Regarding C57A C72U A150U, the “polymerase ribozyme fitness (log ratio)” value was -0.157.

With U55G G86A U134A, the “polymerase ribozyme fitness (log ratio)” value was -3.62.

Take U55G G58C C76U G80A G88A C96G U109C A110G G141A U146G: the “polymerase ribozyme fitness (log ratio)” value was at most -4.2.

Turning to C57U A66U C79U C87A A89U, the “polymerase ribozyme fitness (log ratio)” value was at most -4.2.

C57A G62A G81U A113G A120U U127C G136A A142C: the “polymerase ribozyme fitness (log ratio)” value was at most -4.2.

Take C57A C75G C85G C103U U135A: the “polymerase ribozyme fitness (log ratio)” value is at most -4.2.

Turning to U55A G68U G94C C116G A137U U146A, the “polymerase ribozyme fitness (log ratio)” value is at most -4.2.

Regarding U55A C63A, the “polymerase ribozyme fitness (log ratio)” value is -0.431.

With U56A U82C A106G A115C U151A, the “polymerase ribozyme fitness (log ratio)” value was at most -4.2.

Consider U56G C76U C103A, for which the “polymerase ribozyme fitness (log ratio)” value was at most -4.2.

In the case of C57A G59C G84U A107G A115U A137G C149U, the “polymerase ribozyme fitness (log ratio)” value is at most -4.2.

Regarding U56G U82A A89G C95U G133C, the “polymerase ribozyme fitness (log ratio)” value was -3.49.

As for U55G C72U G83U C96U, the “polymerase ribozyme fitness (log ratio)” value was -1.11.

U55A C57U G68U C85G A119G C125U: the “polymerase ribozyme fitness (log ratio)” value was at most -4.2.

Regarding C57G U61A A66U G94C C96G A138C, the “polymerase ribozyme fitness (log ratio)” value was at most -4.2.

Take U56A A142U: the “polymerase ribozyme fitness (log ratio)” value was -0.643.

As to U56C G81U G92U C108G, the “polymerase ribozyme fitness (log ratio)” value is at most -4.2.

Regarding C57U A110G, the “polymerase ribozyme fitness (log ratio)” value is -2.85.

As for C57U G58C C87G G143A, the “polymerase ribozyme fitness (log ratio)” value is at most -4.2.

Consider U56A A73U C93G G141C, for which the “polymerase ribozyme fitness (log ratio)” value is at most -4.2.

As to C57A C87U C103G, the “polymerase ribozyme fitness (log ratio)” value is -2.01.

C57U C75G C87A A98U A120C: the “polymerase ribozyme fitness (log ratio)” value was at most -4.2.

Turning to U55A G68U U82C A137U, the “polymerase ribozyme fitness (log ratio)” value is at most -4.2.

For U56A C57U G71A U102G C131A, the “polymerase ribozyme fitness (log ratio)” value is at most -4.2.

Turning to U55G C57G A97G A106C, the “polymerase ribozyme fitness (log ratio)” value is -3.

For U55A C57U, the “polymerase ribozyme fitness (log ratio)” value was 0.643.

Take C57A C79A G81A C96G: the “polymerase ribozyme fitness (log ratio)” value was at most -4.2.

In the case of U56A C95U U104G A113G C116A, the “polymerase ribozyme fitness (log ratio)” value is at most -4.2.

As to U55A C76A C149A, the “polymerase ribozyme fitness (log ratio)” value was at most -4.2.

Take C57A U127A: the “polymerase ribozyme fitness (log ratio)” value was -3.56.

For the variant C57A C87A C116G U127A C129U A137G C149U, the “polymerase ribozyme fitness (log ratio)” value was at most -4.2.

U55A U139G: the “polymerase ribozyme fitness (log ratio)” value is -0.865.

As to U56C G84C C87U C103G A106C A119C, the “polymerase ribozyme fitness (log ratio)” value is at most -4.2.

For U56A G62A C76U G81A C87U C95U, the “polymerase ribozyme fitness (log ratio)” value was -1.49.

On to U55A U56A G65A C85U U90G G136C, for which the “polymerase ribozyme fitness (log ratio)” value is at most -4.2.

Take U55G C87U U101G U104G C114G A142G U144G: the “polymerase ribozyme fitness (log ratio)” value is at most -4.2.

Take C57A A73U G80C U101G A106U: the “polymerase ribozyme fitness (log ratio)” value is at most -4.2.

For the variant U55A G141A, the “polymerase ribozyme fitness (log ratio)” value was -0.587.

As to U55A C129A, the “polymerase ribozyme fitness (log ratio)” value is -2.11.

For the variant U56A A91G U148C, the “polymerase ribozyme fitness (log ratio)” value was -3.72.

With U56A G71U C125G, the “polymerase ribozyme fitness (log ratio)” value was -3.78.

For C57A G92A A150C, the “polymerase ribozyme fitness (log ratio)” value was at most -4.2.

With U56G G59C C85G U135A, the “polymerase ribozyme fitness (log ratio)” value is -2.51.

Consider U56A G136A, for which the “polymerase ribozyme fitness (log ratio)” value was -0.463.

In the case of C57G A97U A107C, the “polymerase ribozyme fitness (log ratio)” value was at most -4.2.

On to C57A A60C C85A, for which the “polymerase ribozyme fitness (log ratio)” value is -3.08.

As for U55A U56C G83C, the “polymerase ribozyme fitness (log ratio)” value is at most -4.2.

Turning to U55A A66G G92U A119C, the “polymerase ribozyme fitness (log ratio)” value was at most -4.2.

U55G G80A: the “polymerase ribozyme fitness (log ratio)” value was -2.09.

Take C57G G83C C85U A119G: the “polymerase ribozyme fitness (log ratio)” value was -1.44.

Regarding U55C G65C C85G C99G U146G, the “polymerase ribozyme fitness (log ratio)” value was at most -4.2.

Regarding U56A G67C C85A C108G G140A, the “polymerase ribozyme fitness (log ratio)” value is at most -4.2.

Consider U55A C57A A60G A73U C132U U145G, for which the “polymerase ribozyme fitness (log ratio)” value is -2.26.

For the variant U55A C103U, the “polymerase ribozyme fitness (log ratio)” value was -0.726.

For U56C C108G C116A, the “polymerase ribozyme fitness (log ratio)” value is at most -4.2.

As to C57U A64C A66G G67U G71A G92C A113G G140U, the “polymerase ribozyme fitness (log ratio)” value is at most -4.2.

C57U C87U C93A G152A: the “polymerase ribozyme fitness (log ratio)” value was at most -4.2.

U56A U127A A138C A142G: the “polymerase ribozyme fitness (log ratio)” value is -3.48.

As for U55G G67U A73U G84U G86U, the “polymerase ribozyme fitness (log ratio)” value was at most -4.2.

For the variant U55A C96G A115U A119G, the “polymerase ribozyme fitness (log ratio)” value is -2.42.

On to C54U U148A, for which the “polymerase ribozyme fitness (log ratio)” value is -3.74.

For the variant U55A U61A A91U A97C A142G, the “polymerase ribozyme fitness (log ratio)” value is at most -4.2.

Turning to U55A G58C U61G G62A A66G G81C A113C C132G, the “polymerase ribozyme fitness (log ratio)” value was at most -4.2.

Values taken from the RNAGym collection of RNA variant scans (doi:10.1073/pnas.2313332121).
